# Whole data set: some 33,000 sequences, median “E-score (-0.5 to 0.5)” near -0.053, cut for the highest 2% near 0.37. Some of the results follow.
# Molecular target: Hap1 (UniProt P0CE41)
# Test: PBM E-score (8-mer binding enrichment) (E-score (-0.5 to 0.5)); higher = stronger / more preferred TF binding; most listed sequences are background and not binding sites
# Settings: protein concentration: 200 nM; construct: GST-DNA-binding domain
# Summary of the method: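 Full-length yeast transcription factors or their DNA-binding domains, GST-tagged and expressed with PURExpress, were applied at about 100-200 nM to universal all-10-mer Agilent arrays. These arrays had been made double-stranded by primer extension on fresh or once-stripped slides. Detection used fluorescent anti-GST, normalisation used masliner, and E-scores for ungapped eight-base words pooled with reverse complements came from the Universal PBM Analysis Suite.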
# Sequence of UniProt P0CE41 (P0CE41 whole entry): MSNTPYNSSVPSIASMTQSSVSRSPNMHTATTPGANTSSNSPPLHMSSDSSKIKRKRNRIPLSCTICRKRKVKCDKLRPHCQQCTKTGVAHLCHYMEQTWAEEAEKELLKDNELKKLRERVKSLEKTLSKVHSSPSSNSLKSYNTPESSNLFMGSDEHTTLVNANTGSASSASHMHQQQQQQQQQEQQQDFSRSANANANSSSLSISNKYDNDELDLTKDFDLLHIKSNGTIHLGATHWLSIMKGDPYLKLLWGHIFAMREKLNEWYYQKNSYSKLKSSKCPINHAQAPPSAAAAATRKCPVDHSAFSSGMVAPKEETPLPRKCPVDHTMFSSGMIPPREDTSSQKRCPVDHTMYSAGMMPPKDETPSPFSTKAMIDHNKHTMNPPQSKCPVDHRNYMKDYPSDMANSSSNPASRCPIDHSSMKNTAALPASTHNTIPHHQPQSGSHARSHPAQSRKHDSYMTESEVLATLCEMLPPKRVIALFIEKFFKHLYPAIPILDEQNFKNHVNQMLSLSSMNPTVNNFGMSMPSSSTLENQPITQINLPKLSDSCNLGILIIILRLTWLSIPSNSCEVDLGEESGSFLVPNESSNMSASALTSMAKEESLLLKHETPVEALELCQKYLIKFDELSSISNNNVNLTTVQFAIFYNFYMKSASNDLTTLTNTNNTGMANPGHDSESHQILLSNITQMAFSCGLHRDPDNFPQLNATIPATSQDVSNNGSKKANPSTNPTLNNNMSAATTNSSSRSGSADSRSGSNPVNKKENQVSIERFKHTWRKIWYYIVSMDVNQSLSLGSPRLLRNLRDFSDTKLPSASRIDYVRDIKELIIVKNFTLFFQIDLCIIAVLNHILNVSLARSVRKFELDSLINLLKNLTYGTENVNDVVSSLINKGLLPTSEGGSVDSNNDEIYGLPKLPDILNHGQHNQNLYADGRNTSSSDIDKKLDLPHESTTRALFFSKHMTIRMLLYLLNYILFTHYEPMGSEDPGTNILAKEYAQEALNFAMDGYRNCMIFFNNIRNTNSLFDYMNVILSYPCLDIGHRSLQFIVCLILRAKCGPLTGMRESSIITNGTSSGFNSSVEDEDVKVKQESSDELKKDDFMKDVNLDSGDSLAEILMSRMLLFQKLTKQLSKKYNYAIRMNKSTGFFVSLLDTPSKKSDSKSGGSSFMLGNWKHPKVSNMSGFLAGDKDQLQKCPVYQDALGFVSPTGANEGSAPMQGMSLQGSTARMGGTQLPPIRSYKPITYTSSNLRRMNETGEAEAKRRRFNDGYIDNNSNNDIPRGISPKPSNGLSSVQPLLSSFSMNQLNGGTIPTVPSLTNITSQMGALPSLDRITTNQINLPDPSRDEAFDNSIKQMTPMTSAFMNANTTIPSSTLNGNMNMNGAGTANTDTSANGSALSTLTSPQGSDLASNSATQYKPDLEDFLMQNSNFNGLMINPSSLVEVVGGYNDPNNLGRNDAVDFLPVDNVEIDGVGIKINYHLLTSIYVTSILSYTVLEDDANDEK
row,Sequence,PBM E-score
1,ATGCGACA,-0.157
2,ACACCCTC,-0.00479
3,GGCCGGCC,0.367
4,CTTCTGCA,-0.0482
5,GCGAACGA,0.00245
6,CGAGCGAG,0.175
7,GTAAGGAA,-0.202
8,ACCCCGTG,0.158
9,CGTAATAC,0.124
10,CCGCTGGA,0.108
11,ATTATTCG,0.176
12,GTAGCATA,-0.0458
13,TTAAAAAA,-0.103
14,CCGTATCC,0.165
15,CATGTGCC,-0.067
16,GTCCCGTA,0.0594
17,ATCCACGG,0.264
18,CACACTAC,-0.24
19,AATTTAAC,0.0595
20,CTCATGAA,-0.051
21,AGTTTGTG,-0.0491
22,ATAAACAA,-0.1
23,CAGGGGCA,-0.17
24,CTCCTTCA,-0.223
25,AGGGATAT,0.012

row,Sequence,PBM E-score
1,GTCAAACA,-0.261
2,CCCATGGC,0.0284
3,GCGTAACA,0.0744
4,AATTTGCA,-0.0183
5,AACTTGCG,-0.00342
6,ATCAGACA,-0.188
7,CTAGTTAC,-0.0907
8,AAGGATTA,-0.111
9,GTACATTA,-0.0927
10,AGGTTGAC,-0.0609
11,AAAGTTTC,-0.105
12,GAGTCGCA,-0.275
13,GGCAATGA,-0.0328
14,CAGGTGAG,-0.342
15,CACGCTGG,-0.203
16,CAAGTACA,-0.189
17,GGCCCCAC,0.0103
18,CTGACTTC,-0.0182
19,AGCAACCG,-0.097
20,CATCAGGG,-0.145
21,AACGGGCT,0.119
22,GGTGATTA,0.303
23,ACCCTCCA,-0.143
24,AATCGGCC,0.285
25,CCGATCCA,0.269

row,Sequence,PBM E-score
1,AAACCTGT,-0.117
2,ACTAGCAT,-0.0643
3,CAGACGGA,0.118
4,ACATATTC,-0.119
5,CGCATACC,0.242
6,AAGGCATG,-0.352
7,AGGCGTAA,-0.171
8,ACCTGCAT,-0.1
9,CTAATAAG,-0.178
10,ATCCTCAT,-0.243
11,GGTCCGCA,0.3
12,AGGCAGTC,-0.124
13,CCTTCTCC,-0.0851
14,CCAACGTC,-0.0117
15,CTCAATTA,-0.221
16,CGACACGA,0.0811
17,AACGAAGC,-0.267
18,CCAATCAC,-0.0231
19,TCCCGGCA,0.277
20,TCTAACAA,-0.208
21,CTTGTATA,-0.133
22,CCACCCCC,-0.00462
23,CAAGAAAG,-0.123
24,AGGAACCA,-0.102
25,ATGTGCTG,-0.0561

row,Sequence,PBM E-score
1,AGTACTGC,-0.199
2,GTCTGTGA,-0.165
3,AGCCCTGA,-0.136
4,AGGAATCA,-0.0386
5,AATTCTAT,-0.165
6,CCTTTGCG,0.0464
7,GAGTCGTA,-0.155
8,ACTGAATC,-0.173
9,GGCCCGTA,0.281
10,GTTGTGTA,-0.218
11,CTTCACCA,-0.154
12,ACACTCAG,-0.208
13,AGGAAATA,0.155
14,ACAGTGTC,-0.16
15,TGTCAAAA,-0.0782
16,AATTGTAT,-0.0787
17,ATTTTGGA,0.147
18,CACTTCCC,-0.0515
19,AAAAAAGG,0.0917
20,CTCTAGGA,-0.314
21,CTGAAATC,0.0978
22,GAAAATCA,-0.0795
23,CAGGACAA,0.0261
24,CCGTACGA,0.105
25,CCGGCCGC,0.299

row,Sequence,PBM E-score
1,CCCACGTA,-0.202
2,AGTCATGC,-0.182
3,ATATTTAG,-0.0881
4,GATCCGGA,0.395
5,ATAGCATC,-0.177
6,AATTTCGC,0.22
7,ATACGGCG,0.144
8,CGCCAGAA,-0.0527
9,CATTCCAA,-0.225
10,TTAGGAAA,-0.141
11,CTAGAAGA,-0.0325
12,ACCGGCCC,0.329
13,AAGCTCCA,-0.157
14,TGGGGCAA,-0.282
15,AGGAATAC,-0.116
16,CGGGTATC,0.247
17,GCGGTCGA,0.163
18,ATACACAG,-0.146
19,GGGTTATA,0.0789
20,CATAAAGC,-0.188
21,CGGCCACC,0.251
22,TAACCCCA,0.135
23,GCATCGAC,-0.0733
24,CCAATGAC,-0.211
25,GATCGTTA,-0.0222

row,Sequence,PBM E-score
1,ATCAGCTG,-0.257
2,CCAGGCGA,-0.174
3,CTTCCGAA,0.324
4,TCCTAAAA,-0.112
5,CACCAGAA,-0.265
6,AGGACACA,-0.0409
7,GATGACGA,-0.288
8,AATTGCTG,-0.067
9,ATACCAAC,0.0295
10,ACACGGCT,0.146
11,CCCTTGCA,-0.16
12,GGAGACGA,0.128
13,CATACGCG,0.0615
14,GCCATGAA,-0.231
15,ATGCGGCC,0.101
16,GTCAGACA,-0.0693
17,AGTTGCTG,-0.0744
18,CATACTCC,0.144
19,AAGATACG,-0.0621
20,CGCATAAG,0.143
21,GCTGAAAC,0.0233
22,AATGCTGG,-0.0802
23,ACGGGGCA,-0.00925
24,AGACTCGC,-0.0685
25,ATGAGTCG,-0.075

row,Sequence,PBM E-score
1,GACAGCTA,-0.249
2,CCCGCGGA,0.322
3,ATTCTGGG,-0.223
4,AAACCAAG,-0.0855
5,CTCCTCCC,-0.144
6,AATTGCTA,-0.106
7,ACCCCCGT,0.126
8,CCTTACGC,-0.0369
9,AATTACTA,-0.00109
10,CATATTAC,0.152
11,CATTAAGA,-0.202
12,AGCAGCCC,-0.14
13,ACATAAAG,-0.0498
14,GGGCTCTA,0.023
15,TATGCAGA,-0.201
16,ACAGGTTC,-0.216
17,AAGTAGGA,-0.375
18,CGATACCG,0.309
19,CCCATCGA,-0.117
20,GTAAGTGA,-0.0133
21,CGATATGA,0.213
22,ACTTGCTA,-0.197

# From the supplement of paper PMC3334620
